The conditions of this data set: Gallus gallus, Thermal, Phosphate 10 mM.

One may read the Tm as the temperature at the midpoint of the melting transition.

Consider “Lysozyme C wild type (chain not printed)”, for which the Tm (pH 4.2, Absorbance) was determined as 73.3 °C; the Tm (pH 4.2, CD) is 74 °C; the Tm (pH 4.2, DSC) came to 73.2 °C; the Tm (pH 4.2, Fluorescence) came to 75 °C; the Tm (pH 4.2, Optical Density) amounted to 69.3 °C; the Tm (pH 7.4, Absorbance) came out at 75 °C. Besides, the Tm is, setting by setting: (pH 7.4, CD) 80 °C; (pH 7.4, DSC) 77.7 °C; (pH 7.4, Fluorescence) 80 °C.
